# From the supplement of paper PMC8728848
# The list shows a part of the results.
# B1: InvD YPIII (Yersinia pseudotuberculosis), B1JSC0 (protein)
# chain: MIKYFSFFKKPEPIVGILPNRQSHHILPTHIRRVAWGTLLLQLFIPLSVSFSPAIAAMKASKADTMVSYSSTEPYVLGSGETVAMVAKKYGITVDELKKINIYRTFSRPFTALTTGDEIDIPRKASPFSVDNNKDNRLSVENTLAGHAVAGATALSNGDVAKSGERMVRSAASNEFNNSAQQWLSQFGTARVQLNINDDFHLDGSAADVLIPLYDNEKSILFTQLGARNKDSRNTVNMGAGVRTFQGNWMYGANTFFDNDLTGKNRRIGVGAEAWTDYLKLSANNYFGITDWHQSRDFIDYNERPANGYDLRAEAYLPSYPQLGGKAMYEKYRGDDVALFGKDNRQKNPHAITAGVNYTPIPLVTIGAEHRAGKGGQNDSNINFQLNYRLGETWQSHIDPSAVAASRTLAGSRYDLVERNNHIVLDYQKQNLVRLSLPDSLAGDPFSQLSVTAQVTATHGLERIDWQSAELMAAGGVLKQTSKNGLEITLPEYQMNRTGGNSYILNAIAYDTQGNASSQASMLITVNAQKINIANSTLVAVPINIEANNSDTSVVTLTLKDDNNIPVTGQDVTFLSPLGTLSAMTDSGNGVYTATLTAGTVSGTTAVSSNINGSALDMTPATVTLNGNSGELSITHSMLVAAPVNIEANGSDTSVVTLTLRDSNNNPVTGQTVTFAGTLGTLGAVTEGSSGVYTATLTAGIMVGTSSITASVNSTALGVTPATVTLNGDSGNLSTTNSTLVAAPVNIEANSSDTSVVTLTLRDNNNNPVTGQTVVFTSTLGTLGNVTEQASGVYTATLTAGTVSGVASLSVSVGGNALGVTPATVTLNGDSGNLSTTNSTLVAAPVNIEANSSDTSVVTLTLRDNNNNPVTGQTVNFAGTLGTLGTVSEGSSGVYTTTLTAGTVAGVASLSVNVGGNALGVTPATVTLNGNSGNLSATNSTLVAAPVNIEANSSDTSVVTLTLRDNNNNPVTGQTVAFTSTLGTLGNVTEQASGVYTATLTAGTVSGVASLSVSVNSNALGVTPATVTLNGDSGNLSTTNSTLVAAPVNIEANSSDTSVVTLTLRDNNNNPVTGQTVAFTSTLGTLGNVTEQASGLYTATLTAGTVSGVASLSVNVGGNALGVTPATVTLNGDSGNLSATNSTLVAAPVNIEANSSDTSVVTLTLRDNNNNPVTGQTVAFTSTLGTLGNVTEQASGLYTATLTAGTVSGVASLSVNVGGTALGVTPATVTLNGDSGNLSTTNSTLVAAPVNIEANSSDTSVVTLTLRDNNNNPVTGQTVAFTSTLGTLGNVTEQASGLYTATLTAGTVSGVASLSVSVNSTALGVTPATVTLNGDSGNLSTTNSTLVAAPVNIEANSSDTSVVTLTLRDNNNNPVTGQTVAFTSTLGTLGNVTEQASGVYTATLTAGTVAGVASLSVNVGGNALGVTPATVTLNGDSGNLSTTNSTLVAAPVNIEANSSDTSVVTLTLRDNNNNPVTGQTVAFTSTLGTLGNVTEQASGVYTATLTAGTVSGVASLSVSVGSSALGVTPATVTLNGDSGNLSTTNSTLVAAPVNIEANNSDTSVVTLTLRDNNNNPVTGQTVAFTSTLGTLGNVTEQASGVYTATLTAGTVSGVASLSVSVNSNALGVTPATVTLNGDSGNLSTTNSTLVAAPVNIEANSSDTSVVTLTLRDNNNNPVTGQTVVFTSTLGTLGNVTEQASGLYTATLTAGTVSGVASLSVSVGGNALGVTGNITLAPGALDAARSILAVNKPSINADDRIGSTITFTAQDAQGNAITGLDIAFMTDLENSQIMTLVDHNDGTYTANINGTQTGIANIAVQSSGATIAGLAATMVTITPGAWNTTQATPVMTVALPITTCQSSSGVYKRYYIGIVTHELYDNYGNEISGILTYNLGAGRYTTVTSQNSSVSGSNGLTRRSNSPVSHFILTSDAYTSQAACYAERIANVNVTITVTAITDDFKTSAVNKVFILGTGSN
# Tests used:
# Assay in all cases: glycan array binding signal (z-score within array); higher = stronger binding
# Details in all cases: glycan notation: IUPAC condensed, linker removed
# Neu5Ac(a2-3)Gal = target: Neu5Ac(a2-3)Gal
# Summary of the method: (§1)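 The binding signal is a Z-score computed within each array and averaged over linkers. Arrays of the same protein sequence at different concentrations or buffers were also averaged together. Data originate from 3228 arrays in the Consortium for Functional Glycomics database, kept only where the protein sequence was available.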
# [1] = target: Neu5Ac(a2-3)Gal(b1-3)GalNAc
# Summary of the method: as §1
# [2] = target: Neu5Ac(a2-3)Gal(b1-3)GalNAc(b1-3)Gal(a1-4)Gal(b1-4)Glc
# Summary of the method: as §1
# [3] = target: Neu5Ac(a2-3)Gal(b1-3)GalNAc(b1-4)Gal(b1-4)Glc
# Summary of the method: as §1
# [4] = target: Neu5Ac(a2-3)Gal(b1-3)GalNAc(b1-4)[Neu5Ac(a2-3)]Gal(b1-4)Glc
# Summary of the method: as §1
# [5] = target: Neu5Ac(a2-3)Gal(b1-3)GalNAc(b1-4)[Neu5Ac(a2-8)Neu5Ac(a2-3)]Gal(b1-4)Glc
# Summary of the method: as §1
# [6] = target: Neu5Ac(a2-3)Gal(b1-3)GalNAc6S
# Summary of the method: as §1
# [7] = target: Neu5Ac(a2-3)Gal(b1-3)GlcNAc
# Summary of the method: as §1
# [8] = target: Neu5Ac(a2-3)Gal(b1-3)GlcNAc(b1-2)Man
# Summary of the method: as §1
# [9] = target: Neu5Ac(a2-3)Gal(b1-3)GlcNAc(b1-2)Man(a1-3)[GlcNAc(b1-4)][Neu5Ac(a2-3)Gal(b1-3)GlcNAc(b1-2)Man(a1-6)]Man(b1-4)GlcNAc(b1-4)GlcNAc
# Summary of the method: as §1
# [10] = target: Neu5Ac(a2-3)Gal(b1-3)GlcNAc(b1-2)Man(a1-3)[Neu5Ac(a2-3)Gal(b1-3)GlcNAc(b1-2)Man(a1-6)]Man(b1-4)GlcNAc(b1-4)GlcNAc
# Summary of the method: as §1
# [11] = target: Neu5Ac(a2-3)Gal(b1-3)GlcNAc(b1-2)[Neu5Ac(a2-3)Gal(b1-3)GlcNAc(b1-4)]Man(a1-6)[Neu5Ac(a2-3)Gal(b1-3)GlcNAc(b1-2)Man(a1-3)]Man(b1-4)GlcNAc(b1-4)GlcNAc
# Summary of the method: as §1
# [12] = target: Neu5Ac(a2-3)Gal(b1-3)GlcNAc(b1-3)Gal(b1-3)GlcNAc
# Summary of the method: as §1
# [13] = target: Neu5Ac(a2-3)Gal(b1-3)GlcNAc(b1-3)Gal(b1-4)GlcNAc
# Summary of the method: as §1
# [14] = target: Neu5Ac(a2-3)Gal(b1-3)GlcNAc(b1-3)GalNAc
# Summary of the method: as §1
# [15] = target: Neu5Ac(a2-3)Gal(b1-3)GlcNAc(b1-6)GalNAc
# Summary of the method: as §1
# [16] = target: Neu5Ac(a2-3)Gal(b1-3)GlcNAc6S
# Summary of the method: as §1
# [17] = target: Neu5Ac(a2-3)Gal(b1-3)[Fuc(a1-4)]GlcNAc
# Summary of the method: as §1
# [18] = target: Neu5Ac(a2-3)Gal(b1-3)[Fuc(a1-4)]GlcNAc(b1-3)Gal(b1-3)[Fuc(a1-4)]GlcNAc
# Summary of the method: as §1
# [19] = target: Neu5Ac(a2-3)Gal(b1-3)[Fuc(a1-4)]GlcNAc(b1-3)Gal(b1-4)[Fuc(a1-3)]GlcNAc
# Summary of the method: as §1
# [20] = target: Neu5Ac(a2-3)Gal(b1-3)[GlcNAc(b1-6)]GalNAc
# Summary of the method: as §1
# [21] = target: Neu5Ac(a2-3)Gal(b1-3)[Neu5Ac(a2-6)]GalNAc
# Summary of the method: as §1
binder,measurement,setting,value
B1,glycan array binding signal (z-score),Neu5Ac(a2-3)Gal,-0.29
same,glycan array binding signal (z-score),[1],0.015
same,glycan array binding signal (z-score),[2],-0.117
same,glycan array binding signal (z-score),[3],-0.278
same,glycan array binding signal (z-score),[4],-0.22
same,glycan array binding signal (z-score),[5],-0.165
same,glycan array binding signal (z-score),[6],-0.069
same,glycan array binding signal (z-score),[7],-0.282
same,glycan array binding signal (z-score),[8],-0.238
same,glycan array binding signal (z-score),[9],-0.366
same,glycan array binding signal (z-score),[10],0.412
same,glycan array binding signal (z-score),[11],-0.409
same,glycan array binding signal (z-score),[12],-0.308
same,glycan array binding signal (z-score),[13],-0.309
same,glycan array binding signal (z-score),[14],-0.083
same,glycan array binding signal (z-score),[15],-0.277
same,glycan array binding signal (z-score),[16],-0.22
same,glycan array binding signal (z-score),[17],-0.332
same,glycan array binding signal (z-score),[18],0.718
same,glycan array binding signal (z-score),[19],0.138
same,glycan array binding signal (z-score),[20],0.045
same,glycan array binding signal (z-score),[21],-0.328
